Results taken from the supplement of paper PMC4967469.
IC50 is the fitted dose that halves viability relative to control wells, and lower means more sensitive; a limit (>, <) means that the fit lies beyond the doses tested. The AUC spans the tested range (256-fold, ending at the top dose) of the same fit; it is 1 without any effect and falls as sensitivity rises. For some assays here: The top dose, if marked as inferred, comes from the curve model; the source does not state it.

Columns and labels:
Assay in all cases: Viability of human cancer cell lines after 72 h of drug (GDSC screen)
[1] = compound: Cc1ccc2nc(NCCN)c3ncc(C)n3c2c1 [BMS-345541]; conditions: top dose 16 µM
Procedure: (§1)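 Human cancer cell lines in 384-well plates, medium with 10% serum, drug for 72 h over a 256-fold dose range (nine 2-fold or five 4-fold steps up to the top dose). Adherent lines were fixed and stained with the nucleic acid dye Syto60, suspension lines read with resazurin; signal relative to control wells, capped at 0 and 100%. One two-parameter sigmoid per drug and line, fitted in a mixed model over all curves with the slope shared within a line.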

[2] = compound: O=C(O)c1ccc(-c2c[nH]c3ncc(-c4ccccc4)cc23)cc1C1CCCC1 [GSK-650394]; conditions: top dose 16 µM; top dose inferred
Procedure: as §1

[3] = compound: COc1cc(C(=O)NC2CCN(C)CC2)ccc1Nc1ncc2c(n1)N(C1CCCC1)C(C)CC(=O)N2C [NPK76-II-72-1]; conditions: top dose 10.24 µM; top dose inferred
Procedure: as §1

[4] = compound: COc1cc([C@@H]2c3cc4c(cc3[C@@H](O[C@@H]3O[C@@H]5CO[C@@H](C)O[C@H]5[C@H](O)[C@H]3O)[C@H]3COC(=O)[C@H]23)OCO4)cc(OC)c1O [Etoposide]; conditions: top dose 16 µM
Procedure: as §1

[5] = compound: COc1ccc(C(=O)CC2(O)C(=O)Nc3c(Cl)ccc(Cl)c32)cc1 [YK 4-279]; conditions: top dose 10 µM
Procedure: as §1

[6] = compound: NC(=O)Nc1cc(-c2cccc(F)c2)sc1C(=O)N[C@H]1CCCNC1 [AZD7762]; conditions: top dose 2 µM
Procedure: as §1

[7] = compound: C=C(c1ccc(C(=O)O)cc1)c1cc2c(cc1C)C(C)(C)CCC2(C)C [Bexarotene]; conditions: top dose 8 µM
Procedure: as §1

[8] = compound: Oc1nc(-c2ccc(C(F)(F)F)cc2)nc2c1CSCC2 [XAV 939]; conditions: top dose 5 µM; top dose inferred
Procedure: as §1

Row | Cell Line | AUC [1] | IC50 [1] [µM] | AUC [2] | IC50 [2] [µM] | AUC [3] | IC50 [3] [µM] | AUC [4] | IC50 [4] [µM] | AUC [5] | IC50 [5] [µM] | AUC [6] | IC50 [6] [µM] | AUC [7] | IC50 [7] [µM] | AUC [8] | IC50 [8] [µM]
1 | HD-MY-Z (Hodgkin lymphoma, adherent) | 0.834 | 10.5 | 0.973 | > 16 | 0.834 | 6.74 | 0.823 | 9.53 | 0.721 | 2.66 | 0.415 | 0.0732 | 0.985 | > 8 | 0.959 | > 5
2 | HDLM-2 (Hodgkin lymphoma, suspension) | 0.872 | 14.9 | 0.981 | > 16 | 0.989 | > 10.2 | 0.848 | 11.6 | 0.757 | 3.39 | 0.816 | 1.09 | 0.867 | 7.03 | 0.984 | > 5
3 | HDQ-P1 (breast, adherent) | 0.949 | > 16 | 0.935 | > 16 | 0.961 | > 10.2 | 0.784 | 8.25 | 0.894 | > 10 | 0.851 | > 2 | 0.957 | > 8 | 0.956 | > 5
4 | HEC-1 (endometrium, adherent) | 0.977 | > 16 | 0.886 | > 16 | 0.989 | > 10.2 | 0.618 | 2.08 | 0.69 | 2.08 | 0.809 | 0.996 | 0.956 | > 8 | 0.988 | > 5
5 | HGC-27 (stomach, adherent) | 0.847 | 9.21 | 0.434 | 0.681 | 0.902 | 9.78 | 0.187 | 0.142 | 0.489 | 0.587 | 0.748 | 0.561 | 0.923 | > 8 | 0.955 | > 5
6 | HMV-II (melanoma, adherent) | 0.861 | > 16 | 0.728 | 5.22 | 0.871 | > 10.2 | 0.432 | 0.624 | 0.772 | 4.73 | 0.873 | > 2 | 0.956 | > 8 | 0.974 | > 5
7 | HN (head and neck, adherent) | 0.985 | > 16 | 0.987 | > 16 | 0.989 | > 10.2 | 0.847 | 10.7 | 0.523 | 0.718 | 0.809 | 0.969 | 0.975 | > 8 | 0.969 | > 5
8 | HO-1-u-1 (head and neck, adherent) | 0.849 | 11.2 | 0.757 | 5.31 | 0.939 | > 10.2 | 0.572 | 1.56 | 0.844 | 6.74 | 0.483 | 0.112 | 0.982 | > 8 | 0.985 | > 5
9 | HOP-62 (lung adenocarcinoma, adherent) | 0.719 | 4.15 | 0.808 | 8.23 | 0.923 | > 10.2 | 0.411 | 0.57 | 0.639 | 1.52 | 0.552 | 0.174 | 0.956 | > 8 | 0.968 | > 5
10 | HOP-92 (large cell lung carcinoma, adherent) | 0.976 | > 16 | 0.971 | > 16 | 0.981 | > 10.2 | 0.718 | 4.63 | 0.738 | 3.38 | 0.598 | 0.242 | 0.964 | > 8 | 0.981 | > 5
11 | HOS (osteosarcoma, adherent) | 0.988 | > 16 | 0.644 | 2.33 | 0.992 | > 10.2 | 0.282 | 0.273 | 0.655 | 1.55 | 0.767 | 0.627 | 0.979 | > 8 | 0.984 | > 5
12 | HSC-2 (head and neck, adherent) | 0.938 | > 16 | 0.819 | 8.22 | 0.987 | > 10.2 | 0.46 | 0.783 | 0.487 | 0.578 | 0.808 | 0.94 | 0.947 | > 8 | 0.983 | > 5
13 | HSC-39 (stomach, suspension) | 0.902 | 15.8 | 0.99 | > 16 | 0.99 | > 10.2 | 0.976 | > 16 | 0.74 | 2.68 | 0.512 | 0.134 | 0.991 | > 8 | 0.968 | > 5
14 | HT-3 (cervix, adherent) | 0.871 | 15.6 | 0.915 | > 16 | 0.921 | > 10.2 | 0.531 | 1.22 | 0.825 | 6.15 | 0.721 | 0.534 | 0.984 | > 8 | 0.935 | > 5
15 | HT-1197 (bladder, adherent) | 0.892 | > 16 | 0.981 | > 16 | 0.978 | > 10.2 | 0.811 | 10.5 | 0.82 | 7.14 | 0.891 | > 2 | 0.855 | > 8 | 0.972 | > 5
16 | HT-1376 (bladder, adherent) | 0.972 | > 16 | 0.854 | > 16 | 0.985 | > 10.2 | 0.731 | 5.2 | 0.906 | > 10 | 0.92 | > 2 | 0.954 | > 8 | 0.928 | > 5
17 | HUTU-80 (digestive system, adherent) | 0.867 | 10.5 | 0.457 | 0.778 | 0.884 | 7.79 | 0.222 | 0.186 | 0.557 | 0.867 | 0.622 | 0.255 | 0.843 | 4.29 | 0.991 | > 5
